# Measurements reported in the supplement of paper PMC7826260.
# The other results are listed elsewhere or left out. The data describe in vitro nicking of single-stranded DNA by Rep domains at 3 µM enzyme and 37 °C for 1 h; the strands have 90 letters, of which the middle is given. The score is log2 (uncut reads / reads without enzyme); the lower, the more was cut; hits are not called. Shares of all reads are compared; uncut strands gain when others are lost, and binding without cutting may add a little.
# Experiments:
# Assay in all cases: uncleaved DNA left, log2 of reads against the no-enzyme library (log2 ratio); higher = less cleavage (more negative = more Rep cleavage of the k-mer); sequences stand for … in CTCGTCCG…ACCGGAGA
# [1] = system: T1, Rep nickase domain of Muscovy duck circovirus
# T1 sequence (Rep 1-111, printed without the tag): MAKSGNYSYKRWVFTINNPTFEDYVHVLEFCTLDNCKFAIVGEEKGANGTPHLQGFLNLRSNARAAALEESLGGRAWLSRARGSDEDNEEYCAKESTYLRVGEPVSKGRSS
# Procedure: (§1)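 A pool of 90-nt single-stranded DNAs with seven random bases just before the constant AC of the nick site (name = the seven bases) was cut by 3 µM recombinant His6-SUMO-tagged Rep nickase domain (300 nM DNA, 50 mM HEPES pH 8.0, 50 mM NaCl, 1 mM MnCl2, 1 h, 37 °C, three replicates). Uncut DNA was amplified and sequenced.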
# [2] = system: T2, Rep nickase domain of banana bunchy top virus
# T2 sequence (Rep 1-94, printed without the tag): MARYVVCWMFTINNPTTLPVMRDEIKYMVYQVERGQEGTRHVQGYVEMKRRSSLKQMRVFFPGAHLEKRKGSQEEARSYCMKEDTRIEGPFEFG
# Procedure: as §1
# [3] = system: T3, Rep nickase domain of cabbage leaf curl virus
# T3 sequence (Rep 1-116, printed without the tag): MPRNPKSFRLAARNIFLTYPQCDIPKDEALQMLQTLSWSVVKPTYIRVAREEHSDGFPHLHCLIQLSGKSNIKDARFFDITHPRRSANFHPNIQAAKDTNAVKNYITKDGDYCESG
# Procedure: as §1
# [4] = system: T4, Rep nickase domain of chickpea chlorotic dwarf virus
# T4 sequence (Rep 1-124, printed without the tag): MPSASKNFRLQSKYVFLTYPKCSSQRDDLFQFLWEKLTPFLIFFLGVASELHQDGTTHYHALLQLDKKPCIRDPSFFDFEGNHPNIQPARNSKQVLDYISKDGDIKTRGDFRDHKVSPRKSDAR
# Procedure: as §1
# [5] = system: T5, Rep nickase domain of faba bean necrotic yellows virus
# T5 sequence (Rep 1-98, printed without the tag): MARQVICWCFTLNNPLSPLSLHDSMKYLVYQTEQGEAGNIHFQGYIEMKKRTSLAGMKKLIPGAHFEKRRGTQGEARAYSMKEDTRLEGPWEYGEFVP
# Procedure: as §1
# [6] = system: T6, Rep nickase domain of maize striate mosaic virus
# T6 sequence (Rep 1-117, printed without the tag): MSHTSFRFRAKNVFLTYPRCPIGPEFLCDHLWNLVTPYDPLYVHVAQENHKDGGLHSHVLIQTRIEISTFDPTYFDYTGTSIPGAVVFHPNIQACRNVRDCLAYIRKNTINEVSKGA
# Procedure: as §1
# [7] = system: T7, Rep nickase domain of porcine circovirus 2
# T7 sequence (Rep 2-116, printed without the tag): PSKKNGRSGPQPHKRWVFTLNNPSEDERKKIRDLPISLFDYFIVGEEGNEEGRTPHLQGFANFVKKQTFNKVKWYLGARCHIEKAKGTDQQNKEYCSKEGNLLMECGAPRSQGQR
# Procedure: as §1
# [8] = system: T8, Rep nickase domain of tomato golden mosaic virus
# T8 sequence (Rep 1-124, printed without the tag): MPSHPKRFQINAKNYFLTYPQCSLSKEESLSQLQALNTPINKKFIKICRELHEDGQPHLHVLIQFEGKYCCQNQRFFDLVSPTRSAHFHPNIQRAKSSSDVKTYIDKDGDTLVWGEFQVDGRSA
# Procedure: as §1
# [9] = system: T9, Rep nickase domain of tomato yellow leaf curl virus
# T9 sequence (Rep 1-136, printed without the tag): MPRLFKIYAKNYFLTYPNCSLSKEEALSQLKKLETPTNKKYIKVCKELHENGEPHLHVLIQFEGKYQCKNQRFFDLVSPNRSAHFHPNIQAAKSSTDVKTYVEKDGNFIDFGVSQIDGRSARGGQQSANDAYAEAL
# Procedure: as §1
# [10] = system: T10, Rep nickase domain of wheat dwarf virus
# T10 sequence (Rep 1-137, printed without the tag): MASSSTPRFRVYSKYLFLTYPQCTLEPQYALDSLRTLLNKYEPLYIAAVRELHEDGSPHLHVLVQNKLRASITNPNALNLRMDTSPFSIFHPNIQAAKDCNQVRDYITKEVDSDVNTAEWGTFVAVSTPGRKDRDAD
# Procedure: as §1
Sequence,uncleaved DNA left (log2) [1],uncleaved DNA left (log2) [2],uncleaved DNA left (log2) [3],uncleaved DNA left (log2) [4],uncleaved DNA left (log2) [5],uncleaved DNA left (log2) [6],uncleaved DNA left (log2) [7],uncleaved DNA left (log2) [8],uncleaved DNA left (log2) [9],uncleaved DNA left (log2) [10]
ATTTTGA,0.0109,-0.0528,-0.218,-0.477,-0.0318,-1.23,-0.0501,-0.098,-0.0683,-0.114
AAGGATT,0.0135,-0.0996,0.113,1.37,-0.13,1.66,-0.022,-0.00189,-0.139,0.0279
ATATCCT,-1.26,0.0872,-0.297,-2.32,0.12,-0.455,-1.85,-0.064,-0.103,-0.0706
CATAACC,-0.251,-0.0804,-0.483,-1.88,-0.0559,-0.93,-0.693,-0.0737,-0.1,-0.0654
TAATGCC,-0.0481,-0.042,-3.59,-2.9,0.0235,-2.61,-0.107,-1.78,-0.0334,-2.12
AGTTAGC,0.0916,-0.0247,-0.285,-0.499,-0.0563,-1.19,0.0268,-0.0654,-0.0792,-0.0732
AAACGAA,-0.0239,-0.0569,-0.197,-0.728,0.0317,-0.827,0.0129,0.066,-0.185,-0.00521
TTCGAAG,-0.0657,-0.224,-0.849,-0.752,-0.0972,-1.27,-0.0527,-0.18,-0.0258,-0.264
GGAACAT,0.0331,0.128,0.97,2.23,0.00991,2.37,0.195,0.106,0.00842,0.245
GAAGGAA,-0.0487,-0.0129,0.378,1.29,-0.0692,1.62,0.0556,-0.00559,-0.0738,-0.00282
CATGATC,0.0238,-0.0018,-0.0614,-0.233,0.0226,-0.821,0.0221,-0.0433,0.0526,0.000265
CGAGTGT,0.123,0.0148,-0.114,0.559,-0.0461,1.35,0.035,0.0496,-0.0274,0.082
CCAGAGA,0.146,0.0414,0.326,0.64,0.127,-0.375,0.21,0.191,0.182,0.172
CGTCCAG,-0.0534,-0.0296,-0.612,-0.401,-0.203,-0.853,0.0627,-0.0768,0.0535,-0.0566
CACTAAA,-0.169,-0.0751,-0.161,-0.86,-0.0753,-0.697,-1.34,-0.0665,-0.166,-0.0497
CATTCAA,-0.164,-0.192,-0.139,-0.433,-0.0882,-0.96,-0.164,-0.00457,0.0317,-0.0213
GAGATGC,0.0201,0.071,0.143,0.649,0.108,-0.193,0.188,0.00979,0.0274,0.0861
GCAAGTG,0.153,0.137,-0.304,-0.0814,0.0299,-0.728,0.182,-0.0291,0.0421,0.0457
CATTTAT,-3.43,-3.56,-0.223,-2,-0.0851,-0.79,-3.4,-0.0664,-0.0828,-0.0315
ACATGAC,-0.0872,0.017,-0.293,-0.0319,0.0256,-0.744,0.158,-0.0137,-0.08,-0.0198
TCGGTCC,0.119,0.136,0.322,0.36,0.00979,0.334,0.14,-0.039,0.116,0.19
CACCCCC,-0.281,-0.228,-0.122,-1.13,-0.242,-0.418,-0.688,-0.168,-0.206,-0.122
TCGCTGA,-0.0377,-0.0932,0.258,0.7,-0.00246,1.13,0.0457,-0.0992,-0.116,0.0677
TGGGTAA,-0.0174,0.058,0.663,1.4,0.0781,1.83,0.132,-0.0163,0.0717,0.149
TTCTGAG,0.128,0.167,0.124,0.201,0.208,-0.518,0.226,0.132,0.205,0.222
CTTCACG,-0.0534,0.13,-0.975,-0.326,0.0718,-1.04,0.155,-0.102,0.00444,-0.0377
GGGTGAA,0.00778,0.168,0.934,1.92,0.0585,2.18,0.235,0.0782,0.112,0.163
CAGAGCG,-0.071,-0.0709,-0.848,-0.373,0.0185,-1.18,0.0465,-0.0207,0.0505,-0.155
ACACTCG,0.0548,0.0529,-0.261,0.661,0.0228,-0.267,0.29,0.0663,0.00758,0.0823
CACCCGG,0.0394,0.0358,0.394,1.12,-0.14,0.918,0.063,0.185,-0.093,0.0016
